Here are results for 62 sequences from the supplement of paper PMC10681739.

Over roughly 2,700 sequences, “arbitrary fluorescence units” has its median near 4,100; the highest 2% begin near 54,000. The list shows a part of the results.

This test addresses T1, ETS1 (UniProt P14921).
T1 sequence: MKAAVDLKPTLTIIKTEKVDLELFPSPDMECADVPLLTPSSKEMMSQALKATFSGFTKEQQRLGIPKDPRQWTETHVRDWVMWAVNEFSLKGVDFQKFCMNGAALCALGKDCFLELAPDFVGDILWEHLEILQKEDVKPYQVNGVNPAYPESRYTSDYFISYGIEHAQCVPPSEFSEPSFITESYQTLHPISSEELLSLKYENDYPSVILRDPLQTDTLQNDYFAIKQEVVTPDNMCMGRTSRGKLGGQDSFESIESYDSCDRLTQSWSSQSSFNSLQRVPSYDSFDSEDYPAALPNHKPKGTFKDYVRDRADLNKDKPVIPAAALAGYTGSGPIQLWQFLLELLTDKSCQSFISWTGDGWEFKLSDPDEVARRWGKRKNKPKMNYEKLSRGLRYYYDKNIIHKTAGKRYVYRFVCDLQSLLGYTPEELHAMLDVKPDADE
Put plainly: ETS1 binding intensity (PBM fluorescence) (arbitrary fluorescence units); higher = stronger binding. Conditions: ETS1 concentration 10 nM. Here is the method:
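gcPBM on wild-type 36-bp genomic probes with two neighbouring ETS1 sites (4-24 bp apart). Recombinant human ETS1 (10 nM) was detected with anti-ETS1 antibody fluorescence. Values are medians over 3 replicate spots. The probes sit in constant array flanks that are not printed.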
AGAGGCGGAAATACAAAGAAAAGAACGGATGAGAGA: the ETS1 binding intensity was 5200. CGGCCGGAACACAAAAAGGAGAAGCCCGGATGTTTG displayed an ETS1 binding intensity of 496. The result for GCCAGGGAAGGCTTCCTGGAGGAAGTGACACATAAG reads 2940; that for TTGTGCAGGAAGTTGGGTTTATCACTTCCTCACAGT, 5870; that for GGAGCGGAGCCACATCCCACATCCTGGCGGGCCCTC, 2330. The result for TGGCACATCCGGCAACACTGCCTCGCCTTCCTGCCT reads 35200; that for CAACAGGAAATTTCAAAACCAGAACAAAGGAAATGC, 2850.

As to CGAGCCGGAAGCTCCGACTGCGGCGGCATCCGGGAC, the ETS1 binding intensity stood at 9580. The sequence AGCAAGGGAAGTGATGTGTGGCCTCCGGAAGGACGC registered an ETS1 binding intensity of 518. TTTTGCTCTTCCTGCCATGTGCATTTCCGGCTTGCA: the ETS1 binding intensity turned out to be 16100. The result for TTTAGTAGAGAGGATGTCAACTTCCCTGTTTGGGTC reads 550. In turn, AGGCTCTGTCTCACTTCCTTCCGGTGTTGCTTAGCT had an ETS1 binding intensity of 17000.

CACGTCGGAGCCACATCCTTTCCTGTCCCCGTGACA gave an ETS1 binding intensity of 5100. ACTGGGACAGGATGGGGAGGGGCAGGAAGCCAGACA yielded an ETS1 binding intensity of 1260. The result for CTGGGCCCTTCCTGCCAGGTTGCACTTCCTGATAGC reads 8540; that for TAACTAGATAACTTCCCCACATCCTGTTGTTTACTA, 5940. On to TCTACAGGAAGAGCATTCCCAGTGGAGGAAATGGCA, for which the ETS1 binding intensity was 1730.

TACACCAGTTTCCTTTGAGCCCACATCCTTTCTCGT returned an ETS1 binding intensity of 2360.

TCCATTTCCTTTGACCTTGGGGACCCAGGAAGGTGC had an ETS1 binding intensity of 11800. The result for CGCGCCGCCTCCGGGAAGCCTTCCGGCCTTCTCCCT reads 2500; that for GTTTGCTGGCTTCCGCCCCTCCAGGAAAAAAAATCA, 12500.

GAATGGGGGAGCCGGAAGCAGGAAGTGAGTTTGCGA came in with an ETS1 binding intensity of 13600. The result for AGCTGGCCCGGAAGTGGCTTGCAGGAAGGAGTTGAG reads 17100; that for TGTTTTGGCGGAAGGACCACAGAGGAAGTCCTTGTC, 1370; that for TCGGATAACAACTTCCGCTCGGGAAGTTTGTAAAAG, 28900. For the sequence CTTAATACTTCCTCTGCCTGGCTCCTTCCTGGCCCG, the ETS1 binding intensity is 6950. Then GCCACCAGGCGGAAGTGCGTACCGGAAGTGCCGGCG, with 18100. The result for GTCAGTTCCGGACCGGTCCGCGGACTCTTCCGGCGC reads 12600. For CCCGGTCGGGGCGGAACGACATCCGGTAACGCCCCT, the ETS1 binding intensity was 17800. The result for TTGAGTGATCTTCCTGCCTCGGCTTCCTGTGTAGCT reads 4950; that for CCACTTATCATCCTGAAAATCAGAGGAAGCATCAAG, 171; that for AATAATATTTCCTCCCCTCAGCCAGGATGCTTTTTC, 3460. Then TGAAGCCGGAAGAAAGTTCTGGGACTTCCCCTTCTC, with 1710.

The sequence CTCAGAGACCGGTTCCGGCCAGGAACGGGAAGTGCC registered an ETS1 binding intensity of 1740. For the sequence ACTCCACTTCCCAGAATTCCTAAGCGGAAGCGTCTC, the ETS1 binding intensity turned out to be 1160. The sequence CTTCCCTGGTAACATCCGGCATCCTGGGGCTGCCAA showed an ETS1 binding intensity of 18800. Then CGCGACTGTGAATTTCCGTTTCCGGCGGTGTCCATG, with 21100. For the sequence GCTGGTGCTCCAGGATGCGTTTCCTGCCCGCGCACC, the ETS1 binding intensity was 5880.

Turning to CAGCTGTTTCCTCGTATTTCTGCAGCTTCCTCTTTC, the ETS1 binding intensity is 1170. In the case of ATCTGGAGGGGAAGTGGGTTGGCTTCCTGCCAGGGC, the ETS1 binding intensity was found to be 2480. Then GTCGCGGCTTCCGCTGAGCTGCCTGTTCCGGGGCAC, with 18800; and GCCCTCAGGAAACTTAGAATCATGGCGGAAGGCGAA, with 221.

The sequence CTGAGCCCTCTTCCGTCACACAGGAAGCTGCAGGGC returned an ETS1 binding intensity of 3770. Take CCACAGGAAATTATGATAGCAAAAGTCTTCCTGTCG: the ETS1 binding intensity stood at 3310. Then AGGCCCTCTGCTTCCTAAACACTTCCCTTGAAGGGC, with 392; and GCATTTCCCTCTTTTGAACAGCAAAATAGGAAATTG, with 5250; and ATTTGGCCTCACAGGAAACAGGAAATACCAGAAAAG, with 6530. Sequence CTGATAAGGATGTGGGTAGCTATAAAGGAAATATTT showed an ETS1 binding intensity of 232. In turn, TGCGGGGCGGAAGCCGGGGCGTGACTTCCGGCGCCG displayed an ETS1 binding intensity of 11600.

On to AGACCATCCGGCTGAATCAGAGCCCGGAGGAAATAC, for which the ETS1 binding intensity was determined as 8540. Then CCGTTTCCCAGGAGCCCCAGGTGGGGTCTTCCGGTT, with 2040; and GACGTTCCGCTGCGCCCCGCGCAAAACCGGAAGTAC, with 8560; and CGCCATACCTGGCTTCCGCTTCCGGTGGCTTCTCGT, with 28200. In turn, ACGCCCTACTTCCGGCTGCCAGCTTCCTGTTATGGT displayed an ETS1 binding intensity of 50300. For the sequence CTCCCCGCGGCGGATGCGCGCGGAACGGATGGGCGC, the ETS1 binding intensity was 762. Regarding GAGGCAGGAAAGAACTGGGCAGGTCCAGGAAACAGA, the ETS1 binding intensity is 288. ACACTTCCTTTGAAAAACAGAATGTCACTTCCTCAG showed an ETS1 binding intensity of 16300. CGGCTGTCTGTTTCCGCTCTAAGGAAACTCAGAGCG: the ETS1 binding intensity stood at 20000. With CTGGCTTCCTTTTACCACCACTGTCTGCTTCCTCAT, the ETS1 binding intensity came to 3880. The result for CCGAGGGGAGGGAGGAAGTGGGAAGTCACCCCTGTC reads 1680; that for TTGTTTGAACAGGAAGAGTCACTTCCTTGTTATGCT, 2390. Consider GGTTAGGCTGCGTTTCCTGTTTCCTGTAGCTTTATG, for which the ETS1 binding intensity was 17200.
